Laboratory results: ChEMBL document CHEMBL1961873, “Compounds: GSK PKIS; Assays: Nanosyn kinase panel” (2012)
For some assays here: The strong results were mostly taken out for another list; the other results follow. This is a selection; strong and weak results do not stand in their true shares.

What was measured:
[1] = biological target: Platelet-derived growth factor receptor beta (Homo sapiens) (UniProt P09619); conditions: at 1 µM;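 also: each value is a mean percent inhibition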
[2] = biological target: Tyrosine-protein kinase FRK (Homo sapiens) (UniProt P42685); conditions: at 0.1 µM
[3] = biological target: Tyrosine-protein kinase FRK (Homo sapiens) (UniProt P42685); conditions: at 1 µM
[4] = biological target: Protein-tyrosine kinase 2-beta (Homo sapiens) (UniProt Q14289); conditions: at 0.1 µM
[5] = biological target: Protein-tyrosine kinase 2-beta (Homo sapiens) (UniProt Q14289); conditions: at 1 µM
[6] = biological target: Proto-oncogene tyrosine-protein kinase receptor Ret (Homo sapiens) (UniProt P07949); conditions: at 0.1 µM
[7] = biological target: Proto-oncogene tyrosine-protein kinase receptor Ret (Homo sapiens) (UniProt P07949); conditions: at 1 µM
[8] = tested on: Proto-oncogene tyrosine-protein kinase receptor Ret (Homo sapiens), P07949 [V804L]; conditions: at 0.1 µM
[9] = tested on: Proto-oncogene tyrosine-protein kinase receptor Ret (Homo sapiens), P07949 [V804L]; conditions: at 1 µM
[10] = tested on: Proto-oncogene tyrosine-protein kinase receptor Ret (Homo sapiens), P07949 [Y791F]; conditions: at 0.1 µM

Chain of UniProt P42685 (P42685 whole entry): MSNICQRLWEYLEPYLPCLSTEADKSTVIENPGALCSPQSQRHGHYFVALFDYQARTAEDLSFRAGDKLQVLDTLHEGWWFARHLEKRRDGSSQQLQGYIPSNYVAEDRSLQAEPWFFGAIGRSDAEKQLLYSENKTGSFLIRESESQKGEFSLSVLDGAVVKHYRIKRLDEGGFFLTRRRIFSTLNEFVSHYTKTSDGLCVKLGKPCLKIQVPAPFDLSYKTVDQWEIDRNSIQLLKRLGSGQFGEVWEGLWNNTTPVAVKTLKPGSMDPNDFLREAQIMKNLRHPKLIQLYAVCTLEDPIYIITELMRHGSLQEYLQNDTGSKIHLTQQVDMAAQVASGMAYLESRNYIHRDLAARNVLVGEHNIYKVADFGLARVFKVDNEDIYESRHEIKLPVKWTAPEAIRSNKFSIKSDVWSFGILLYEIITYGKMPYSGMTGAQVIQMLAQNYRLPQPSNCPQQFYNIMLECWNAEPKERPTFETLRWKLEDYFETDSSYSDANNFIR
Chain of UniProt P09619 (P09619 whole entry): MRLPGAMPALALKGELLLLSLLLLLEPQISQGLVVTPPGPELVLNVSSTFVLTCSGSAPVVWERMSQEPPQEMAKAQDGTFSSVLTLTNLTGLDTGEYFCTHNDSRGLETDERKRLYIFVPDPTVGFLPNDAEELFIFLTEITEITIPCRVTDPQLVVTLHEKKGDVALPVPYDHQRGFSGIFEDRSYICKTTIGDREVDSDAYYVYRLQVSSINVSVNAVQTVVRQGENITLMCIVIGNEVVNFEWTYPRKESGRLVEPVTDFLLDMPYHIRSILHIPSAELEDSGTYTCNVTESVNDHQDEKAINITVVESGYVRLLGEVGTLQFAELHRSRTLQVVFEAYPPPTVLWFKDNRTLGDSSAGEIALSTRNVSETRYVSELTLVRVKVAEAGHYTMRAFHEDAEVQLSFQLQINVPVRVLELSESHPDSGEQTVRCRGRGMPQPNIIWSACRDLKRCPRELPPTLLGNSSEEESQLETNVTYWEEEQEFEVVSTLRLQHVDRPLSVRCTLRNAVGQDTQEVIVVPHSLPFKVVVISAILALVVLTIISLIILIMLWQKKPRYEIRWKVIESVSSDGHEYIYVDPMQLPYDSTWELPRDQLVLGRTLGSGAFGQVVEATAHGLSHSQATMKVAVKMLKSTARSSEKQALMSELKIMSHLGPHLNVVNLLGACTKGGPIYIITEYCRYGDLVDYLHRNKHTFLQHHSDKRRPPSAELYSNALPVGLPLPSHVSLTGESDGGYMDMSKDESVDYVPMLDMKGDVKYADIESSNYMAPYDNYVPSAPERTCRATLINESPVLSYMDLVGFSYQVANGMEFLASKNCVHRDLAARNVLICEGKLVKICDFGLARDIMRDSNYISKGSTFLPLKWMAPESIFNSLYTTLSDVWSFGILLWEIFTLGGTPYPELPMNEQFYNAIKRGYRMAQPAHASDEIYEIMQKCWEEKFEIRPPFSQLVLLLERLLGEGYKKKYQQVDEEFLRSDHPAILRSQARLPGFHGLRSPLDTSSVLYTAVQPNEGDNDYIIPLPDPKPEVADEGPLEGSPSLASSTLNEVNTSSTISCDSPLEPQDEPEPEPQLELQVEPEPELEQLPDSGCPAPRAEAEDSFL
Chain of UniProt Q14289 (Q14289 whole entry, looked up): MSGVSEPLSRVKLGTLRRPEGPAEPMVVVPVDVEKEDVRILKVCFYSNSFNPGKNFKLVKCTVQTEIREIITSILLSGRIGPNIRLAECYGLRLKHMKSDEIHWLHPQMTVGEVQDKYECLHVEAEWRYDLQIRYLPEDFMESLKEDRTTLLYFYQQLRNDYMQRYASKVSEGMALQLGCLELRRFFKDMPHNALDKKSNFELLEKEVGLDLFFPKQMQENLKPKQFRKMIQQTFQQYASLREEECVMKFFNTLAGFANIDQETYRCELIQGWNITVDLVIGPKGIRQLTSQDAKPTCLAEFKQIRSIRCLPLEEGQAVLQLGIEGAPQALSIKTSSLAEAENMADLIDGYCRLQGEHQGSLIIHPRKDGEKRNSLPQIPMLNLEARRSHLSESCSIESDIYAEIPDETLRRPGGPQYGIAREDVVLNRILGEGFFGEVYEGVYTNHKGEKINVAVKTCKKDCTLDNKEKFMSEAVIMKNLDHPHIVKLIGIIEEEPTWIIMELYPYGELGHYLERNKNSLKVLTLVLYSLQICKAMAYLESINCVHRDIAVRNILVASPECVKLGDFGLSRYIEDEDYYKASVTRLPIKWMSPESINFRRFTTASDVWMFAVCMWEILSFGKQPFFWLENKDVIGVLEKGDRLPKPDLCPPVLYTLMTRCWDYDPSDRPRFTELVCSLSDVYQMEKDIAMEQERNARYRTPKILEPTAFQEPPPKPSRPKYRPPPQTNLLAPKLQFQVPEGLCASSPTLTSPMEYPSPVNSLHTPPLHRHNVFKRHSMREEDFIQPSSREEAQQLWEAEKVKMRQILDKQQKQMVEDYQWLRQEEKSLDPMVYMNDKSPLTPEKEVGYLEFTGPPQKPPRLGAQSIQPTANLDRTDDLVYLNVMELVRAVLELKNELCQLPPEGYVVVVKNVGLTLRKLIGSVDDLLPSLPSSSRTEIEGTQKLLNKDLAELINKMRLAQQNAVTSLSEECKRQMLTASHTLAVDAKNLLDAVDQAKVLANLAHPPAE
Chain of UniProt P07949 (P07949 whole entry): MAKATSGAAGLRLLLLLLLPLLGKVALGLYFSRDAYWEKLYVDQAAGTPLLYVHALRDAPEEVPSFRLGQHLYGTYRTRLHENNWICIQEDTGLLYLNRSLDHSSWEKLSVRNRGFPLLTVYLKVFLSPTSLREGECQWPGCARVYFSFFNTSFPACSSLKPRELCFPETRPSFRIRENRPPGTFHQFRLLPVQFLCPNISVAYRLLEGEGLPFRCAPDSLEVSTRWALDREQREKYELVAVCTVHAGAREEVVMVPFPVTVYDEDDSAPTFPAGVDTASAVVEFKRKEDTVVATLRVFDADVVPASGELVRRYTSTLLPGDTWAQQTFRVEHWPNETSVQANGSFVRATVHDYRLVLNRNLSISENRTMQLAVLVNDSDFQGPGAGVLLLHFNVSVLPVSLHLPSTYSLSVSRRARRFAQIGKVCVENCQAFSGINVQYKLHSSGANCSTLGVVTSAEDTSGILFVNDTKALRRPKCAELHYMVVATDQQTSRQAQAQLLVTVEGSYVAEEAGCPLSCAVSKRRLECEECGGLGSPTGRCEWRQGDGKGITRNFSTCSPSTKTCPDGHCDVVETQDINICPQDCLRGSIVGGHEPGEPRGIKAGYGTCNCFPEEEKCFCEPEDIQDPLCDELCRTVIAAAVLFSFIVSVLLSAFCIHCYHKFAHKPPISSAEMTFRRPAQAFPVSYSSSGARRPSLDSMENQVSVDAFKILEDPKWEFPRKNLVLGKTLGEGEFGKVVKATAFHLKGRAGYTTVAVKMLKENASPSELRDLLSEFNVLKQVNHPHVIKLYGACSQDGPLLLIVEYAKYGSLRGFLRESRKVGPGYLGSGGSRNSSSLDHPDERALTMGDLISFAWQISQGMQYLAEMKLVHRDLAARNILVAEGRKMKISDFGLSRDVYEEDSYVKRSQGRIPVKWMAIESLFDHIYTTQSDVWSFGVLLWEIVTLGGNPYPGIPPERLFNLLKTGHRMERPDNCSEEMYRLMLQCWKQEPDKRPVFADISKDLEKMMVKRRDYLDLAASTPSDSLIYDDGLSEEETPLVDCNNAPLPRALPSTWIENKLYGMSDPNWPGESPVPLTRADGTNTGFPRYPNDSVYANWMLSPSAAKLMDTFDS

**Q.** For `Fc1ccc(Oc2nccc(-c3c(-c4ccc(F)cc4)ncn3C3CCNCC3)n2)cc1`, which inhibition [1] is on record?
**A.** Its inhibition is 3.22%.

**Q.** And the inhibition [2]?
**A.** Its inhibition is 2.03%.

**Q.** And the inhibition [3]?
**A.** The inhibition was 2.78%.

**Q.** What about the inhibition [4] of the same molecule?
**A.** The inhibition was -0.55%.

**Q.** What about the inhibition [5] of the same molecule?
**A.** Its inhibition is 8.01%.

**Q.** And the inhibition [6]?
**A.** The inhibition was 0.21%.

**Q.** What about the inhibition [7] of the same molecule?
**A.** Its inhibition is 3.25%.

**Q.** What about the inhibition [8] of the same molecule?
**A.** Its inhibition is 1.64%.

**Q.** And the inhibition [9]?
**A.** The inhibition was 5.36%.

**Q.** What about the inhibition [10] of the same molecule?
**A.** The inhibition was 2.78%.

**Q.** What does the source list for `O=C1NC(=O)C(c2ccccc2Cl)=C1Nc1cc(Cl)c(O)c(Cl)c1`?
**A.** inhibition [1]: 14.1%; inhibition [2]: 1.41%; inhibition [3]: 0.33%; inhibition [4]: 10.1%; inhibition [5]: 13%; inhibition [6]: 3.05%; inhibition [7]: 5.72%; inhibition [8]: 0.66%; inhibition [9]: 17.1%; inhibition [10]: 0.8%

**Q.** `Cc1cccc(Oc2nccc(-c3c(-c4ccc(F)cc4)ncn3C3CCNCC3)n2)c1C` was tested. Which inhibition [1] did it give?
**A.** The inhibition was 7.07%.

**Q.** And the inhibition [2]?
**A.** Its inhibition is 2.34%.

**Q.** What about the inhibition [3] of the same molecule?
**A.** The inhibition was 3.3%.

**Q.** And the inhibition [4]?
**A.** Its inhibition is 5.26%.

**Q.** What about the inhibition [5] of the same molecule?
**A.** The inhibition was 7.9%.

**Q.** What about the inhibition [6] of the same molecule?
**A.** The inhibition was 3.65%.

**Q.** And the inhibition [7]?
**A.** The inhibition was 7.22%.

**Q.** What about the inhibition [8] of the same molecule?
**A.** The inhibition was 3.71%.

**Q.** What about the inhibition [9] of the same molecule?
**A.** Its inhibition is 8.02%.

**Q.** And the inhibition [10]?
**A.** The inhibition was 5.73%.

**Q.** `CC(C)(C)c1ccc(Oc2nccc(-c3c(-c4ccc(F)cc4)ncn3C3CCNCC3)n2)cc1` was tested. Which inhibition [1] did it give?
**A.** The inhibition was 9.17%.

**Q.** What about the inhibition [2] of the same molecule?
**A.** The inhibition was 2.96%.

**Q.** And the inhibition [3]?
**A.** The inhibition was 2.13%.

**Q.** What about the inhibition [4] of the same molecule?
**A.** The inhibition was 6.1%.

**Q.** And the inhibition [5]?
**A.** Its inhibition is 10.3%.

**Q.** And the inhibition [6]?
**A.** Its inhibition is 6.21%.

**Q.** And the inhibition [7]?
**A.** The inhibition was 6.76%.

**Q.** And the inhibition [8]?
**A.** The inhibition was 4.62%.

**Q.** And the inhibition [9]?
**A.** The inhibition was 8.07%.

**Q.** What about the inhibition [10] of the same molecule?
**A.** The inhibition was 7.19%.

**Q.** For `O=C1NC(=O)C(c2ccccc2)=C1Nc1ccccc1`, which inhibition [1] is on record?
**A.** Its inhibition is 14.4%.

**Q.** What about the inhibition [2] of the same molecule?
**A.** The inhibition was 4.38%.

**Q.** And the inhibition [3]?
**A.** The inhibition was 2.96%.

**Q.** And the inhibition [4]?
**A.** The inhibition was 11.2%.

**Q.** What about the inhibition [5] of the same molecule?
**A.** Its inhibition is 14.1%.

**Q.** What about the inhibition [6] of the same molecule?
**A.** The inhibition was 6.46%.

**Q.** What about the inhibition [7] of the same molecule?
**A.** The inhibition was 10.2%.

**Q.** And the inhibition [8]?
**A.** Its inhibition is 3.6%.

**Q.** And the inhibition [9]?
**A.** The inhibition was 8.73%.

**Q.** What about the inhibition [10] of the same molecule?
**A.** The inhibition was 11.6%.

**Q.** `Fc1ccc(-c2ncn(C3CCNCC3)c2-c2ccnc(Oc3cccc(F)c3)n2)cc1` was tested. Which inhibition [1] did it give?
**A.** The inhibition was 11.9%.

**Q.** And the inhibition [2]?
**A.** Its inhibition is 4.78%.

**Q.** What about the inhibition [3] of the same molecule?
**A.** The inhibition was 3.94%.

**Q.** What about the inhibition [4] of the same molecule?
**A.** Its inhibition is 6.46%.

**Q.** And the inhibition [5]?
**A.** The inhibition was 14.4%.

**Q.** And the inhibition [6]?
**A.** Its inhibition is 3.18%.

**Q.** And the inhibition [7]?
**A.** Its inhibition is 7.72%.

**Q.** What about the inhibition [8] of the same molecule?
**A.** The inhibition was 2.93%.

**Q.** And the inhibition [9]?
**A.** The inhibition was 7.74%.

**Q.** And the inhibition [10]?
**A.** The inhibition was 5.79%.

**Q.** Which results are given for `O=C1NC(=O)C(c2cccc([N+](=O)[O-])c2)=C1Nc1cc(Cl)c(O)c(Cl)c1`?
**A.** inhibition [1]: 4.95%; inhibition [2]: 0.72%; inhibition [3]: 0.95%; inhibition [4]: 0.55%; inhibition [5]: 5.27%; inhibition [6]: 3.54%; inhibition [7]: 3.36%; inhibition [8]: 1.26%; inhibition [9]: 2.64%; inhibition [10]: 2.45%

**Q.** `NC(=O)CCc1ccccc1Oc1nccc(-c2c(-c3ccc(F)cc3)ncn2C2CCNCC2)n1` was tested. Which inhibition [1] did it give?
**A.** The inhibition was 3.03%.

**Q.** What about the inhibition [2] of the same molecule?
**A.** The inhibition was -0.1%.

**Q.** And the inhibition [3]?
**A.** The inhibition was 1.4%.

**Q.** What about the inhibition [4] of the same molecule?
**A.** Its inhibition is -4.8%.

**Q.** What about the inhibition [5] of the same molecule?
**A.** Its inhibition is -1.77%.

**Q.** What about the inhibition [6] of the same molecule?
**A.** The inhibition was 2.33%.

**Q.** What about the inhibition [7] of the same molecule?
**A.** Its inhibition is 3.04%.

**Q.** And the inhibition [8]?
**A.** The inhibition was 1.66%.

**Q.** And the inhibition [9]?
**A.** Its inhibition is -0.56%.

**Q.** What about the inhibition [10] of the same molecule?
**A.** Its inhibition is -0.01%.

**Q.** With `COc1ccccc1Oc1nccc(-c2c(-c3ccc(F)cc3)ncn2C2CCNCC2)n1` as the molecule, how does the inhibition [1] read?
**A.** Its inhibition is 8%.

**Q.** What about the inhibition [2] of the same molecule?
**A.** Its inhibition is 3.08%.

**Q.** And the inhibition [3]?
**A.** Its inhibition is 3.1%.

**Q.** What about the inhibition [4] of the same molecule?
**A.** The inhibition was 3.75%.

**Q.** And the inhibition [5]?
**A.** The inhibition was 5.59%.

**Q.** What about the inhibition [6] of the same molecule?
**A.** The inhibition was 3.97%.

**Q.** What about the inhibition [7] of the same molecule?
**A.** The inhibition was 8.75%.

**Q.** And the inhibition [8]?
**A.** Its inhibition is 3.51%.

**Q.** And the inhibition [9]?
**A.** The inhibition was 11.1%.

**Q.** And the inhibition [10]?
**A.** Its inhibition is 6.45%.

**Q.** How did the inhibition [1] turn out when `Fc1ccc(-c2ncn(C3CCNCC3)c2-c2ccnc(Oc3ccc(Cl)cc3)n2)cc1` was run?
**A.** Its inhibition is 4.24%.

**Q.** And the inhibition [2]?
**A.** Its inhibition is 0.37%.

**Q.** And the inhibition [3]?
**A.** The inhibition was 1.55%.

**Q.** What about the inhibition [4] of the same molecule?
**A.** The inhibition was 3.12%.

**Q.** And the inhibition [5]?
**A.** Its inhibition is 8.77%.

**Q.** What about the inhibition [6] of the same molecule?
**A.** Its inhibition is -0.56%.

**Q.** And the inhibition [7]?
**A.** The inhibition was 0.73%.

**Q.** And the inhibition [8]?
**A.** Its inhibition is 2.11%.

**Q.** And the inhibition [9]?
**A.** Its inhibition is 1.61%.

**Q.** What about the inhibition [10] of the same molecule?
**A.** Its inhibition is 1.66%.

**Q.** Which results are given for `O=C(O)c1ccc(Oc2nccc(-c3c(-c4ccc(F)cc4)ncn3C3CCNCC3)n2)cc1`?
**A.** inhibition [1]: 5.24%; inhibition [2]: 2.11%; inhibition [3]: 1.88%; inhibition [4]: -0.54%; inhibition [5]: 7.42%; inhibition [6]: 3.22%; inhibition [7]: 2.07%; inhibition [8]: 3.24%; inhibition [9]: 5.54%; inhibition [10]: 4.65%

**Q.** Which results are given for `CS(=O)(=O)c1ccc(Oc2nccc(-c3c(-c4ccc(F)cc4)ncn3C3CCNCC3)n2)cc1`?
**A.** inhibition [1]: 1.5%; inhibition [2]: 2.69%; inhibition [3]: 2.33%; inhibition [4]: 0.08%; inhibition [5]: 2.41%; inhibition [6]: 4.17%; inhibition [7]: 2.55%; inhibition [8]: 3.11%; inhibition [9]: 1.92%; inhibition [10]: 7.04%

**Q.** With `COc1ccccc1C1=C(Nc2ccccc2)C(=O)NC1=O` as the molecule, how does the inhibition [1] read?
**A.** Its inhibition is 9.91%.

**Q.** What about the inhibition [2] of the same molecule?
**A.** The inhibition was 1.2%.

**Q.** And the inhibition [3]?
**A.** Its inhibition is 1.76%.

**Q.** And the inhibition [4]?
**A.** Its inhibition is 1.5%.

**Q.** And the inhibition [5]?
**A.** Its inhibition is 13.1%.

**Q.** And the inhibition [6]?
**A.** Its inhibition is 6.25%.

**Q.** What about the inhibition [7] of the same molecule?
**A.** Its inhibition is 12%.

**Q.** And the inhibition [8]?
**A.** The inhibition was 4.29%.

**Q.** And the inhibition [9]?
**A.** The inhibition was 13.4%.

**Q.** What about the inhibition [10] of the same molecule?
**A.** The inhibition was 8.48%.

**Q.** How did the inhibition [1] turn out when `Fc1ccc(-c2ncn(C3CCNCC3)c2-c2ccnc(Oc3cccc(C(F)(F)F)c3)n2)cc1` was run?
**A.** The inhibition was 9.63%.

**Q.** And the inhibition [2]?
**A.** Its inhibition is 4.64%.

**Q.** What about the inhibition [3] of the same molecule?
**A.** The inhibition was 4.39%.

**Q.** And the inhibition [4]?
**A.** Its inhibition is 7.35%.

**Q.** And the inhibition [5]?
**A.** The inhibition was 6.56%.

**Q.** What about the inhibition [6] of the same molecule?
**A.** The inhibition was 6.25%.

**Q.** And the inhibition [7]?
**A.** Its inhibition is 6.72%.

**Q.** And the inhibition [8]?
**A.** The inhibition was 4.83%.

**Q.** And the inhibition [9]?
**A.** The inhibition was 4.87%.

**Q.** What about the inhibition [10] of the same molecule?
**A.** Its inhibition is 9%.
